Hit rate of the full screen: of about 310,000 compounds, about 17,000 (5.5%) were called active. Inconclusive results (about 11%) are left out. Calls come from the whole dose curve; as a rule, active = well fitted inhibition curve with a large enough effect; inconclusive = small, poorly fitted or top-dose-only effect, or effect the other way; inactive = no such curve, though single readings can be large or run the other way. The list shows a part of the results, in another mix than the full data. Some structures have more than one record in an assay (separate samples or runs), and their calls can disagree.
target: Nuclear receptor ROR-gamma (Mus musculus) (UniProt P51450); experiment: qHTS for inhibitors of ROR gamma transcriptional activity; settings: Drosophila S2 Gal4-RORgamma UAS-luciferase reporter, 20 h; series mostly up to 53.6 µM; activity change, negative = inhibition: at the top concentration; note: nearly all actives have a fitted effect of over 60% in size
Excerpt: NIH Molecular Libraries Probe Production Network [MLPCN] NIH Chemical Genomics Center [NCGC] MLPCN Grant: R03 DA026211-01 Assay Provider: Dan Littman, New York University Assay Overview: The retinoic acid-related orphan receptor (ROR) gamma is a transcription factor that has a central role in the differentiation of Th17 cells, a subset of T helper cells that secrete the inflammatory cytokines IL-17, IL-17F, and IL-22. Th17 cells have been implicated in graft versus host disease, autoimmune disease and asthma. ROR gamma is induced in naive T helper cells in the presence of TGF-beta combined with IL-6, IL-21, or IL-23, and thereafter directs the expression of the Th17 lineage cytokines. To study the mechanism of action of ROR gamma, an insect cell-based assay was screened. This Drosophila Schneider cell line was stably transfected with two vectors: a gene expressing a fusion of the Gal4 DNA binding domain and ROR gamma transactivation domain under the control of the metallothionine promoter and a Photinus luciferase reporter regulated by the Gal4 binding site enhancer, UAS. […] Small molecule inhibitors of ROR gamma activity are detected by a decrease in luciferase reporter activity.
Assay Protocol Summary: For screening, 600 cells in 4 uL/well were dispensed into white solid 1536-well plates (Grenier) using a solenoid-based dispenser. Following transfer of 23 nL compound or DMSO vehicle by a pin tool, the plates were incubated 1 hr at ambient temperature, and 1 uL/well copper sulfate (700 uM final concentration) was added. The plates were centrifuged 15 s at 1000 RPM and incubated 20 hr at ambient temperature. After addition of 1.5 uL Photinus luciferase detection reagent, the plates were incubated 10 min at ambient temperature and then read by an ViewLux (Perkin Elmer) to detect luminescence. Keywords: NIH Roadmap, MLPCN, MLI, MLSMR, qHTS, NCGC, qHTS, nuclear hormone receptor, retinoic acid-related orphan receptor, ROR gamma
% is set by controls: 0 for no effect and ±100 for the full control effect; potency is the fitted concentration of half-maximal effect.

UniProt P51450, sequence (P51450 whole entry, looked up, the tested form may be a part): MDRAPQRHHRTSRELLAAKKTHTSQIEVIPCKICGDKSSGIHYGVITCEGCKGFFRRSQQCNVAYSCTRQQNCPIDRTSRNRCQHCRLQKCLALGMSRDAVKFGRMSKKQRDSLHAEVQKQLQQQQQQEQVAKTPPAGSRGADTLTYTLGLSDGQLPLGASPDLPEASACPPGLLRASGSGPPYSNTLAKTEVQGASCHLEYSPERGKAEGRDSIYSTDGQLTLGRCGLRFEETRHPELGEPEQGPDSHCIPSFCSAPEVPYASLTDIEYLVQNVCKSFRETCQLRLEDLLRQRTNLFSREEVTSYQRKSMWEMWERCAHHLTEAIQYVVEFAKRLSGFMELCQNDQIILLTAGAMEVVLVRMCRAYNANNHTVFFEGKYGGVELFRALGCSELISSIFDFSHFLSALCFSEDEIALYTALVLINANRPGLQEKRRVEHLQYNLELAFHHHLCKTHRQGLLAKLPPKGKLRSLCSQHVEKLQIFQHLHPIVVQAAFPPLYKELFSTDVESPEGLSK

SMILES | Potency | activity change, negative = inhibition
Cc1ccc(S(=O)(=O)CCC(=O)c2ccc(F)cc2)cc1 | active: 3.98 µM | 
CC(C)C1=CC2=CC[C@H]3[C@](C)(C(=O)O)CCC[C@]3(C)C2CC1 (stereo not given in full) |  | inactive: 12%
C[C@@H]1O[C@@H](O[C@H]2[C@H](Oc3cc(O)c4c(c3)O[C@H](c3ccc(O)cc3)CC4=O)O[C@H](CO)[C@@H](O)[C@@H]2O)[C@H](O)[C@H](O)[C@H]1O |  | inactive: 15.7%
CC1=CC(=O)c2ccccc2C1=O |  | inactive: 7.62%
COC(=O)[C@@]1(Cc2ccc(F)cc2)[C@H]2c3cc(C(=O)N(C)C)n(Cc4ccccn4)c3C[C@H]2CN1C(=O)c1ccccc1 |  | inactive: -0.912%
O=C(Nc1ccccc1C(=O)N/N=C/c1ccco1)c1ccc(F)cc1 | active: 1.12 µM | 
O=C(/C=C/c1ccc(Cl)cc1Cl)NC(=S)Nc1ccc(CN2CCOCC2)cc1 | active: 3.55 µM | 
Cc1ccc([N+](=O)[O-])cc1N=Nc1c(C)[nH]n(C(N)=S)c1=O | active: 7.08 µM | 
CCNC(=S)N/N=C/c1cccs1 | active: 0.794 µM | 
C[C@@H](C(=O)O)[C@@H]1C[C@@]1(C)[C@@H](NC(=O)OCc1ccccc1)c1ccccc1 | inactive | 
C[C@H]1CC[C@@]2(O[C@@H](CCO)C[C@@H](O)[C@@H]2O)O1 |  | inactive: 6.43%
CC1CCC2C(=O)N(c3ccc(C(=O)Oc4cccc5cccnc45)cc3)C(=O)C2C1 (stereo not given) | active: 6.31 µM | 
OCCN1CCN(CC/C=C2\c3ccccc3Sc3ccc(C(F)(F)F)cc32)CC1 |  | inactive: 0.427% [at 16.9 µM]
CCOC(=O)c1cnc2ccccc2c1NCc1ccco1 | active: 6.31 µM | 
Cc1ccccc1NC(=S)NCCC(c1ccccc1)c1ccccc1 | active: 5.01 µM | 
COC(=O)C1=C(C)N(Cc2ccco2)C(=O)N[C@H]1c1cccc(C(F)(F)F)c1 |  | inactive: -36.2%
CCCC[C@@H]1C[C@H]1[C@@H](NC(=O)c1ccccc1)c1ccccc1C(F)(F)F |  | inactive: 11.5%
CCOc1ccc(N=C(/C(C(=O)C(=O)N2CCOCC2)=C(\O)c2ccccc2)c2ccccc2)cc1 |  | inactive: -88.9%
CC12CCC(CC1=O)C2(C)C (stereo not given) |  | inactive: 8.81%
C[C@@H](C(=O)NCc1ccccc1)[C@H]1C[C@]1(C)[C@H](NC(=O)OCc1ccccc1)c1ccccc1 | inactive | 
C[C@@]12CCC=C[C@H]1[C@H](c1ccc3ccccc3c1)N(Cc1ccccc1)C2=O |  | inactive: -3.51%
CC1(C)OC(C(O)(c2ccccc2)c2ccccc2)C(C(O)(c2ccccc2)c2ccccc2)O1 (stereo not given) |  | inactive: 7.79% [at 10 µM]
CCOC(=O)Cc1csc(NC(=O)/C=C\c2ccccc2Cl)n1 |  | inactive: -42.7%

SMILES | Potency | activity change, negative = inhibition
COc1cc([C@H]2c3cc4c(cc3[C@@H](O[C@H]3O[C@H]5CO[C@@H](C)O[C@H]5[C@@H](O)[C@@H]3O)[C@@H]3COC(=O)[C@H]23)OCO4)cc(OC)c1O |  | inactive: -32.5% [at 16.9 µM]
CCO[C@@H]1OC(C(=O)Nc2ccccc2)=C[C@H](c2csc3ccccc23)[C@H]1CCCO |  | inactive: -24.2%
C1COC(NC(C2CC2)C2CC2)=N1 | inactive | 
COc1ccc(CSCC(=O)N/N=C/c2ccccc2O)cc1 | active: 0.708 µM | 
COc1ccc2c(c1)c(CC(=O)O)c(C)n2C(=O)c1ccc(Cl)cc1 | inactive | 
CCc1cc2c(nc1CC)CCN(CC/C(C)=N/OC[C@H]1O[C@H](c3ccccc3)C=C[C@@H]1Oc1ccc(OC)cc1)C2 |  | inactive: -2.48% [at 10 µM]
NNc1nc2cccnc2n(CCNc2ncc(C(F)(F)F)cc2Cl)c1=O | active: 10 µM | 
C/C=C(/C)C(=O)OC1Cc2c(ccc3ccc(=O)oc23)OC1(C)C (stereo not given) |  | inactive: -2.32%
CC(=O)OCCCNc1cc(Sc2nc3ccccc3s2)c2nonc2c1[N+](=O)[O-] | active: 3.55 µM | 
COc1ccc(OC)c(-n2c(-c3cc(-c4ccccc4)n[nH]3)n[nH]c2=S)c1 | active: 7.94 µM | 
CCCCC[C@H](O)/C=C/C1=C(CCCCCCC(=O)O)C(=O)CC1 |  | inactive: -36.8%
COC1=C2C[C@H](C)C[C@H](OC)[C@H](O)[C@@H](C)/C=C(/C)[C@H](OC(N)=O)[C@@H](OC)/C=C\C=C(\C)C(=O)NC(=CC1=O)C2=O |  | inactive: 10.9%
CCOC(=O)C(Sc1nnc(-c2ccncc2)o1)C(C)=O (stereo not given) | active: 5.01 µM | 
COc1ccc2c(c1)Cc1sc(NC(=O)c3cccs3)nc1-2 | active: 7.94 µM | 
CC1(COc2ccc(C[C@H]3SC(=O)NC3=O)cc2)CCCCC1 |  | inactive: 3.78%
Nc1nc(Cl)nc2c1ncn2[C@H]1C[C@H](O)[C@@H](CO)O1 | inactive | 
COC(=O)[C@@]1(Cc2ccc(OC)cc2)[C@H]2c3cc(C(=O)N4CCCC4)n(CCSCCO)c3C[C@H]2CN1C(=O)c1ccccc1 |  | inactive: 19.5%
CCN1C/C(=C\c2cccc([N+](=O)[O-])c2)C(=O)/C(=C/c2cccc([N+](=O)[O-])c2)C1 |  | inactive: 29.5%
NNC(=O)[C@H]1C[C@@H]1c1ccccc1 |  | inactive: -6.74% [at 10 µM]
Fc1ccccc1NC(=S)N/N=C/c1ccccc1Br | active: 3.16 µM | 
O=C(CCCN1C(=O)/C(=C\c2cccs2)SC1=S)Nc1ccc(C(=O)O)cc1 |  | inactive: 8.29%
COC(=O)[C@H](C)[C@@H]1C[C@@]1(C)[C@@H](NC(=O)OCc1ccccc1)c1ccccc1 |  | inactive: 12.6%
COc1cccc(C2=CC(c3cccc(OC)c3OC)n3nnnc3N2)c1 (stereo not given) | active: 3.16 µM | 

SMILES | Potency | activity change, negative = inhibition
CSc1ccc2c(c1)C(N1CCN(C)CC1)Cc1ccccc1S2 (stereo not given) | inactive | 
O=C(C1=C[C@H](c2coc3ccccc3c2=O)C[C@H](OCCCCO)O1)N1CCOCC1 |  | inactive: 25.5%
Cc1oncc1C(=O)Nc1ccc(C(F)(F)F)cc1 | inactive | 
Cc1cc(NC(=O)Nc2ccc(N(C)C)cc2)c2cc(F)cc(F)c2n1 |  | inactive: 18.6%
CCCCC(=O)O[C@@]1(C(=O)CO)C(C)CC2C3CCC4=CC(=O)C=C[C@@]4(C)[C@]3(F)C(O)C[C@]21C (stereo not given in full) |  | inactive: -35.5%
Clc1ccc(Cn2c(CN3CCCC3)nc3ccccc32)cc1 |  | inactive: -25.5% [at 2.98 µM]
O=C1/C(=C/c2cccs2)SC(=S)N1C1CCS(=O)(=O)C1 (stereo not given) |  | inactive: -11.4%
COc1ccc(Br)cc1[C@H]1[C@@H]2C=CCC[C@@]2(C)C(=O)N1Cc1ccccc1 |  | inactive: 20.3%
O=C(N/N=C/c1ccc(Br)s1)c1ccccc1[N+](=O)[O-] | active: 2.51 µM | 
CCCCCCCCCCCCCCCC(O)C(N)CO (stereo not given) |  | inactive: 18.2%
Cc1ccc(Nc2nc3ccccc3c(=O)s2)cc1 | active: 6.31 µM | 
CNc1nc2ccccc2n1/N=C/c1cccc(OC)c1OC | active: 12.6 µM | 
CCOC(=O)[C@@H]1[C@H]2COc3ccccc3[C@H]2N2C(=O)N(c3ccccc3)C(=O)[C@]12C |  | inactive: -1.93%
COC(=O)[C@@]1(Cc2ccc(F)cc2)[C@H]2c3cc(C(=O)N4CCCC4)n(CCc4ccccn4)c3C[C@H]2CN1C(=O)c1ccccc1 |  | inactive: 36.9%
O=C(O)/C(=C1/OC(=O)c2ccccc21)c1ccccc1 |  | inactive: -30.1%
O=C(O)c1cccc(-n2cccc2/C=C/[N+](=O)[O-])c1 |  | inactive: 21.3%
C[C@]12CC[C@@H]3c4ccc(O)cc4CC[C@H]3[C@@H]1CC[C@@H]2O | inactive | 
Oc1cccc(C=Nc2cccc3ccccc23)c1O | active: 11.2 µM | 
Cc1ccc(NC(=O)CCC(=O)N/N=C/c2cc([N+](=O)[O-])ccc2O)cc1 | active: 12.6 µM | 
CCc1ccc(C(=O)Nc2nc3ccccc3[nH]2)cc1 | active: 2.24 µM | 
O=C(N/N=C\c1ccncc1)c1ccccc1O | active: 11.2 µM | 
CCC(C)c1ccc(NC(=S)Nc2ccc(OC)cc2)cc1 (stereo not given) | active: 7.08 µM | 
C(=N\Nc1nc2ccccc2[nH]1)/c1ccc2c(c1)OCO2 | active: 12.6 µM | 

SMILES | Potency | activity change, negative = inhibition
Cc1c(C(=O)c2no[n+]([O-])c2C(=O)c2cnn(C)c2C)cnn1C | active: 10 µM | 
CC1=CC(C)=Nc2ccc(C)cc2N1 |  | inactive: 35.4%
Cc1ccc(C(=O)ONc2ccc(N=O)cc2)cc1 | active: 25.1 µM | 
CNCCCC12CCC(c3ccccc31)c1ccccc12 | inactive | 
CC(Sc1ccc2ccccc2n1)C(=O)O (stereo not given) |  | inactive: -14.8%
CCc1ccccc1NC(=S)/N=C(\N)Nc1nc(C)c2cc(C)ccc2n1 | active: 2.82 µM | 
COc1cc2nc(N3CCN(C(=O)[C@@H]4CCCO4)CC3)nc(N)c2cc1OC |  | inactive: -2.58% [at 16.9 µM]
CC(Oc1ccc(Cl)cc1)C(=O)N/N=C/c1ccsc1 (stereo not given) | active: 11.2 µM | 
CCOc1ccc(/C=C2\SC(=S)N(CCC(=O)Nc3ccc(C(=O)O)cc3)C2=O)cc1 |  | inactive: 11.2%
CCCCCC(O)c1cccc(OCc2ccc3ccccc3n2)c1 (stereo not given) |  | inactive: 19.7%
CC(=O)OCC1OC(C#CC(C)(C)C)C=CC1OC(C)=O (stereo not given) |  | inactive: 23.9% [at 10 µM]
c1ccc(C2[C@H]3CN(Cc4cccnc4)[C@H](c4ccccc4)C34CC2(c2cccnc2)C4)cc1 (stereo not given in full) |  | inactive: -48.1%
COc1ccc(C2/C=C\CN(C(=O)c3ccc(C)cc3)C(Cc3ccccc3)C(=O)N2Cc2ccc(F)cc2)cc1 (stereo not given) |  | inactive: -39.5%
O=c1c2c(-c3ccccc3)csc2ncn1/N=C/c1cccc([N+](=O)[O-])c1O | active: 20 µM | 
COC(=O)[C@@H]1CC[C@H](C)[C@@H](c2ccc(C)cc2)N1C(=O)c1ccc(/C=N\OC[C@@H](O)COCc2ccco2)cc1 |  | inactive: 18.3% [at 10 µM]
NC(=NCCCCCCN=C(N)/N=C(\N)Nc1ccc(Cl)cc1)/N=C(\N)Nc1ccc(Cl)cc1 | inactive | 
C/C(=N\NC(=S)Nc1c(C)cccc1C)c1ccc(OC(F)F)cc1 | active: 3.16 µM | 
COc1ccc(NC(=O)OCCN2CCN(Cc3ccccc3)CCC2=O)cc1 |  | inactive: 14%
C[C@@]12CC[C@@H]3c4ccc(O)cc4CC[C@H]3[C@H]1CC[C@H]2O |  | inactive: -29.1% [at 16.9 µM]
CCOc1ccc(NC(=S)N2CCN(C/C=C/c3ccccc3)CC2)cc1 | active: 14.1 µM | 
COc1ccc2c(c1)O[C@@H](c1cccc(C(F)(F)F)c1)[C@H](O)C2=O |  | inactive: -9.23%

— PubChem BioAssay AID2551 (National Center for Advancing Translational Sciences (NCATS), 2010)
